The values that follow come from the RNAGym collection of RNA variant scans (doi:10.1073/pnas.2313332121).

B1: TPR 5TU (parent)
chain: GGAUCUUCUCGAUCUAACAAAAAAGACAAAUCUGCCACAAAGCUUGAGAGCAUCUUCGGAUGCAGAGGCGGCAGCCUUCGGUGGCGCGAUAGCGCCAACGUUCUCAACUAUGACACGCAAAACGCGUGCUCCGUUGAAUGGAGUUUAUCAUG

Variants at the floor of the assay are shown more often than the library holds them.

Variants of B1 are the subject of the series. As to the kind of experiment: polymerase ribozyme fitness, log enrichment relative to wild type (log ratio); higher = more active; in vitro selection for triplet polymerase activity. In outline: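 After PCR construction and transcription, each subunit's mutant library from a heterodimeric triplet polymerase ribozyme was annealed with a biotinylated primer, the partner subunit and triplets. Incubation was frozen, at −7 °C, and extended constructs were gel-excised, bound to streptavidin beads and amplified by RT-PCR, in one selection round done in triplicate. Fitness is the logarithm of a genotype's enrichment divided by that of the wild type, from inverse-variance-weighted replicate averages of Illumina-sequenced inputs and outputs. The base of the logarithm is 2, and genotypes needed ≥10 input reads and ≥1 read per output.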
For the variant A47U C51A G58A G80A G83A C103U, the “polymerase ribozyme fitness (log ratio)” value is no more than -4.2. The same measure for G48C C79A G84C C87G G92A C108U G140A U145G: no more than -4.2. The same measure for G48A C57G G83C C87G U102A G112C A119C: no more than -4.2; for A47U C95U: -0.679; for G48A C63U G65C C76U A122G G124A: no more than -4.2. With A47U U56A G94A C118U A121U the figure was -0.95; with G48A G58C A91C, no more than -4.2; with A47U G58C U61G G81A, -3.65. As to G48A C57A, the “polymerase ribozyme fitness (log ratio)” value amounted to 0.284. The same measure for G48A A113G A147G G152C: no more than -4.2; for A47U U77C: -4.09; for G48A C51U C54A U82G A120U: -3.66. Take A47U A49G U53G C54G C87U: the “polymerase ribozyme fitness (log ratio)” value is no more than -4.2. The same measure for A49C A52G C85U U101G U127G U144G: no more than -4.2; for A47U A89U A110C: no more than -4.2. The same measure for G48C G59A U61A C85U G141A: no more than -4.2; for A47U C51U A52C U53G U61A A64U C76U G83U U146C: no more than -4.2.

On to A47U A52G A119C, for which the “polymerase ribozyme fitness (log ratio)” value is -1.05.

In the case of G48C A89G A115G G141U, the “polymerase ribozyme fitness (log ratio)” value was no more than -4.2. The same measure for A47U C54U G59U C85A U139C: no more than -4.2; for G48A A110U U145G: no more than -4.2. With A49C A97G U148C, the “polymerase ribozyme fitness (log ratio)” value is no more than -4.2. With A47G A64U C76U G83U A119U C129G G136U the figure was no more than -4.2. The same measure for G48C G59U C75U C105G U145C: no more than -4.2; for A47U U55G: -1.03. The same measure for G48C A115G G133A: -3.85. As to G48A C103A, the “polymerase ribozyme fitness (log ratio)” value is -1.74. Regarding G48C G58A C72U C93G A113G C131U U146A, the “polymerase ribozyme fitness (log ratio)” value was no more than -4.2.

Regarding G48U G86C G133U, the “polymerase ribozyme fitness (log ratio)” value was no more than -4.2. With A49C A66C C85G U135G the figure was no more than -4.2; with G48U G59A C93U, -1.39. The same measure for A47G C99A A142U: -2.48. For the variant A49C C54U, the “polymerase ribozyme fitness (log ratio)” value is no more than -4.2. The same measure for G48A A52C G84U C87U C105A: no more than -4.2. Turning to G48U C93G G94U G140C, the “polymerase ribozyme fitness (log ratio)” value was no more than -4.2. With A49C A64G G70C G88C G94A C114A the figure was no more than -4.2. With A49C C54U A91G C96G G141A the figure was no more than -4.2; with G48U C93U G100A A120U C131G, no more than -4.2.

Consider A47G G74C A122C U127A, for which the “polymerase ribozyme fitness (log ratio)” value is no more than -4.2. With G48U U134G, the “polymerase ribozyme fitness (log ratio)” value is -2.34. The same measure for A47G U90A C95A A98G A138U A147C: no more than -4.2; for A47G G48A U82A G84A A98U C114U A137C: no more than -4.2. For the variant G48C A52G U139C U148G, the “polymerase ribozyme fitness (log ratio)” value is no more than -4.2. For the variant A47G G133C C149G, the “polymerase ribozyme fitness (log ratio)” value is -3.65. The same measure for A47G G140A: -3.51. The same measure for G48U C69A G83U C103G: no more than -4.2.

A47U C87U A91U C95U C114G A120C: the “polymerase ribozyme fitness (log ratio)” value is no more than -4.2.

For the variant A47G G84U G140U, the “polymerase ribozyme fitness (log ratio)” value was no more than -4.2. As for A47G G62U A142G U146G, the “polymerase ribozyme fitness (log ratio)” value was -4.12. The same measure for A47G G74A U101G A121C U145C: no more than -4.2. The same measure for A47G G84U A106G: -2.24; for A49C A115U: no more than -4.2.

For A49C A115G, the “polymerase ribozyme fitness (log ratio)” value was no more than -4.2. For G48C A49C A60C C96G A147U, the “polymerase ribozyme fitness (log ratio)” value is no more than -4.2. With G48U A52G G67A U77C U102G the figure was no more than -4.2. For A47G C69A A122G, the “polymerase ribozyme fitness (log ratio)” value is -3.43. With A47G A89C C95A C103A C108U C131G G133C A138U the figure was no more than -4.2. The same measure for A47U C103G: no more than -4.2. Regarding A49C C69A A97U C105G A106G, the “polymerase ribozyme fitness (log ratio)” value was no more than -4.2. The same measure for A49C A64C C93G C95G C99G C105G U135C A142G: no more than -4.2; for A49C C51A C99U C132G: no more than -4.2. The same measure for G48U G50C U56A C85G: no more than -4.2; for G48C A60C G86A G92U A138C G152A: no more than -4.2. For G48C C75U U90G G117A C129G, the “polymerase ribozyme fitness (log ratio)” value was no more than -4.2. The same measure for G48A C87U A91U C93U: no more than -4.2; for A47U A60C C103G A107G: no more than -4.2; for A49C C57U G74U U90A C93G C95U C103G A138C: no more than -4.2.

As to A49C C51U C57A C95A C105A, the “polymerase ribozyme fitness (log ratio)” value was no more than -4.2. With A47G C85G U90C G124U the figure was no more than -4.2; with A47U G59C C75A A119G U134G, no more than -4.2; with G48A C69G C75G G92U, no more than -4.2. The same measure for A49C A60U A106C C108U: no more than -4.2; for G48A U77C C85U C93U C105U U145C: no more than -4.2; for G48A G62A C96G C105A: no more than -4.2. With G48U C96A the figure was -0.685; with G48U A91U G152U, no more than -4.2; with A47G U61A G84A C105A C108U U151A, no more than -4.2.

On to A49C C51U C95U C96A G112A G126A, for which the “polymerase ribozyme fitness (log ratio)” value was no more than -4.2. With A49C A64U C75U C76U U135G the figure was no more than -4.2; with A47G G88C A89G A98U G143U, no more than -4.2. In the case of G48U G50C C63G G80A C93G A147U G152A, the “polymerase ribozyme fitness (log ratio)” value was no more than -4.2. With A49C C51U U53A G140U G152A the figure was no more than -4.2. For A47U C76U, the “polymerase ribozyme fitness (log ratio)” value was -0.942.
